14 molecules from publication PMC12136788 can be followed below.

T1: UNK ZnF1-3 (human, UniProt Q9C0B0 31-174)
T1 sequence: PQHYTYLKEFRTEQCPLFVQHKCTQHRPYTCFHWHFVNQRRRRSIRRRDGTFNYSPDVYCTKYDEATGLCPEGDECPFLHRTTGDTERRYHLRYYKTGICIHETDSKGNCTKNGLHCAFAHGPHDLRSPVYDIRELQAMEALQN

B1: chr7:103008174:103008175:+_ENSG00000161057_ENST00000292644|hu_hu|FALSE|FALSE (ssRNA)
RNA: GGGAGUUCUACAGUCCGACGAUCACUCAUUGAACGAGCGUGAAUCUUAAAUAUGUGGGUCCGACCCUCUAGAUCGGGCAAGCUAAAUUCAAUUUUUCUAUCCAAUCUCCCUGGCCUCAUCAGUGCUGGAUCCAAAGUAUCAGGCAACAGAGGAUUGAGCAUCA
B2: chr3:51261291:51261292:+_ENSMUSG00000063273_ENSMUST00000029303|mus_hu|FALSE|FALSE (ssRNA)
RNA: GGGAGUUCUACAGUCCGACGAUCUUCAGCUUCUUUAAUCAGGUUGGCUUUUAGCAUGUAUUUUGCACAUUUGGAGUUGAUAAAUCUGUCUGCUGUGUCCAAGGCCUGGGCCUCAUCCAUCCACCUUGCAGCUUCUUUAAUAUUCAACAGAGGAUUGAGCAUCA
B3: chr7:54823571:54823572:-_ENSG00000132432_ENST00000352861|hu_mus|hu_hu_hu_mus_False|28_98 (ssRNA)
RNA: GGGAGUUCUACAGUCCGACGAUCUCCCAUGAUAGCAAAUCCUAUUGCUGUAGCCAUGGCAAUCUUCUGGAAUUCUUUUCUGUCGGGUUUGGUGCAUCUUUUAACCAGCCGAAUGGAGUCCUUUACAAACUGCCGGCUGGGCUCCAACAGAGGAUUGAGCAUCA
B4: chr18:47247233:47247234:+_ENSMUSG00000042705_ENSMUST00000049388|mus_mus|motif|central (ssRNA)
RNA: GGGAGUUCUACAGUCCGACGAUCACGGCCUGCGGCUGCUUCCCUAAUUAAUUACUGUAAUGAGUAAGGUUUCAUACUCUGCGGGGGCACCAUCAUACCUUCUGCCUACAGACCUUCCCUGAUCCCUGAAAGCAAUCUGACAGACAACAGAGGAUUGAGCAUCA
B5: chr8:112342892:112342893:+_ENSMUSG00000031731_ENSMUST00000093157|mus_mus|motif|central (ssRNA)
RNA: GGGAGUUCUACAGUCCGACGAUCAUUAAGAUCAUUCUUGAUACAGUUGGUCAUGAGAAGAUGCACAUCUUGUCUUUCAUCGGAUAAUAGCAUUGCUCCUAAAUAGCCAAUGCGUUUGUCUGUGAAUUUUUGUGAGGCGAUUAGCAACAGAGGAUUGAGCAUCA
B6: chr2:15737528:15737529:+_ENSG00000079785_ENST00000233084|hu_mus|FALSE|FALSE (ssRNA)
RNA: GGGAGUUCUACAGUCCGACGAUCUUUAAUAGUUGUUUUCCCUUUCUUUCCUUCCUGUUGGUCUUUCAGAGUUUCAUACACUAUCUGGAUAACGGGAAUACUAAAUGCACCAGUUUUUCCACUUCCUGUUUCUGCAGCCAUGAGCAACAGAGGAUUGAGCAUCA
B7: chr1:39494447:39494448:+_ENSG00000168653_ENST00000372967|hu_mus|hu_hu_hu_mus_False|8_48 (ssRNA)
RNA: GGGAGUUCUACAGUCCGACGAUCGCACCGAGCGGCGUUCUUAUAGGGCUGUUCUGCGCUUAGGAACAUAAAGUGCCGGUCCAGGCUAAGGCCGAACUUUUUCUGUAUGUCAAGGAAAGGCAUGGCUGAUGCUCGUGCUUGUCACAACAGAGGAUUGAGCAUCA
B8: chr17:56552419:56552420:-_ENSMUSG00000013236_ENSMUST00000086828|mus_mus|mus_mus_mus_hu_False|8_78 (ssRNA)
RNA: GGGAGUUCUACAGUCCGACGAUCAAAAAAUACACUAUUUAAAAAAAAUGAAAUGUCAGAAAAAGAAGUUACACUGAGAGUUUUAAAAGAAAGCUGGAUUCUGGUCCCAGCCCAGUGUCCCCAGGCUGAGUGCGGAAGAGGAGCCAACAGAGGAUUGAGCAUCA
B9: chr1:115282395:115282396:-_ENSG00000009307_ENST00000339438|hu_mus|FALSE|FALSE (ssRNA)
RNA: GGGAGUUCUACAGUCCGACGAUCAUUAUAUUGUGAACAGUGGAAGAAAAGUCUAGCUUGCCGUUCUGAACACUGAAUGAAUCCGUAAGAGGUCAAGAGUUUUUCAAUAACCCCAGUUUCACGAAGUGCUGCUGAAGUACCAUUCAACAGAGGAUUGAGCAUCA
B10: chr2:14037654:14037655:+_ENSMUSG00000026718_ENSMUST00000102960|mus_hu|motif|central (ssRNA)
RNA: GGGAGUUCUACAGUCCGACGAUCAUGACCCUUAUUUAAUACGUUGCUUACUUCACUAGCAAAAUCUCUUGAACAUACUUCGGAAUGAAAAAUUUUGCCACAGUUUGAUACACAUGCUCCUAGAAGAGUCAAAGCCUGCAUAGCCAACAGAGGAUUGAGCAUCA
B11: chr19:2271408:2271409:+_ENSG00000104904_ENST00000602676|hu_hu|motif|central (ssRNA)
RNA: GGGAGUUCUACAGUCCGACGAUCGAUCUUCAGGGGUGGGUGAGGGGCAUCGGAGCACCACCGAGGCCCCGGACCCGGGUUACGGCAGCAGUGGAGGGAGACCCUGGAACUCUCACUGCUGCUGCCGCCGCGGCUGUGCAGGCUCAACAGAGGAUUGAGCAUCA
B12: chr5:40767622:40767623:-_ENSG00000132356_ENST00000397128|hu_mus|hu_hu_hu_mus_False|38_108 (ssRNA)
RNA: GGGAGUUCUACAGUCCGACGAUCAUCUUUGAUUGUGGCCCUCUUCAUGGGAUCCACCUGCAGCAUAUGUUUCAAAAGGCUGAUUACUGAAGGGUUUAAAUAUUGAGGGGUAUAAAAGAUCCCAUCACAUAUCUUCUUAAAAAGCAACAGAGGAUUGAGCAUCA
B13: chr2:152838176:152838177:-_ENSMUSG00000027472_ENSMUST00000028972|mus_hu|FALSE|FALSE (ssRNA)
RNA: GGGAGUUCUACAGUCCGACGAUCUUCAAUCAUUUCCUUUGUCUCAGGGUGAGGCAUCUUGAUAAACAUGUUCCCGAAGCAAACCAUCACAUCUUCAGAGAGGCUGAGAUCCUUCUGCAGGGCCCUCAGGCCCUCUCGAUUCUGCAACAGAGGAUUGAGCAUCA
B14: 8059474_8059594_222_3pUTR_ENSMUSG00000022142_ENSMUST00000163765|mouse|control|control (ssRNA)
RNA: GGGAGUUCUACAGUCCGACGAUCGACACCAUGAGCAGCUCAGAAAGGUCCGGGUACAUGCGGUCUUCUUGCAACUGUCGAUCGAUAAGCCUCCCCGCGUUUUCCAAAGCUUCCUGCAGGGAGGCGGCGGCCGACGUAGAGGCCCAACAGAGGAUUGAGCAUCA

The other results are listed elsewhere or left out.

The target in the assay is T1, UNK ZnF1-3. In words: nsRBNS (natural sequence RNA bind-n-seq); RBNS binding buffer (assumed for nsRBNS): 25 mM Tris pH 7.5, 150 mM KCl, 3 mM MgCl2, 0.01% Triton X-100, 500 ug/ml BSA, 20 U/ml SUPERase-In, 4 C; UNK is unkempt and MSI1 is Musashi-1; names of the RNAs are library labels; protein concentration not given here; high values mean tight binding.
The molecule B1 registered a binding signal of 1.02 enrichment R.

Molecule B2 came in with a binding signal of 0.582 enrichment R.

For B3, the binding signal was 0.733 enrichment R.

As for B4, the binding signal was determined as 0.977 enrichment R.

In turn, B5 returned a binding signal of 0.529 enrichment R.

In the case of B6, the binding signal was determined as 0.554 enrichment R.

With B7, the binding signal is 0.849 enrichment R.

B8 returned a binding signal of 2.06 enrichment R.

On to B9, for which the binding signal came out at 1.2 enrichment R.

For B10, the binding signal is 1.47 enrichment R.

In turn, B11 gave a binding signal of 0.784 enrichment R.

Turning to B12, the binding signal turned out to be 1.21 enrichment R.

The molecule B13 yielded a binding signal of 1.24 enrichment R.

For the molecule B14, the binding signal turned out to be 0.759 enrichment R.
